Measurements from ChEMBL document CHEMBL1201862, “PubChem BioAssay data set” (2004).
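Growth conditions: 96-well plates. Treatment: test compound, 48 hours, 5 concentrations. Analysis: linear interpolation between bracketing concentrations; unreached endpoints set to highest concentration. The concentration for 50% growth inhibition is given as GI50.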 The source made the active and inactive calls. Rule as the data show it: active = GI50 up to about 1.1 µM and inactive = higher.

System: NCI-H322M
Test: NCI-60 cell line screen, 48 h

| Compound | GI50 |
| --- | --- |
| COc1cc(/C=C(\C#N)c2nc3ccccc3o2)ccc1O | inactive: 15.6 µM |
| Cc1cc(C)nc(NS(=O)(=O)c2ccc(NC(=O)c3cccn4c(=O)c5ccccc5nc34)cc2)n1 | inactive: > 100 µM |
| C1=N\CCOCC/N=C\c2ccc(cc2)OCc2cccc(n2)COc2ccc/1cc2 | inactive: > 100 µM |
| O=c1[nH]c(=O)n(C2CC(O)C(CO)O2)cc1C(OCC(F)(F)F)OCC(F)(F)F (stereo not drawn) | inactive: > 100 µM |
| CC1(C)CC(=O)c2c(nc3ccc4ccccc4c3c2-c2ccc(NC(=O)CCCC(=O)Nc3ccc(-c4c5c(nc6ccc7ccccc7c46)CC(C)(C)CC5=O)cc3)cc2)C1 | inactive: > 100 µM |
| COC1=CC(=O)c2ccccc2C1(C)C1=NC(C)(C)CO1 (stereo not drawn) | inactive: > 100 µM |
| CCCSc1ccc2[nH]c(N3C(=O)/C(=C/c4cc(OC)c(OC)c(OC)c4)N=C3c3ccccc3)cc2c1 | active: 0.556 µM |
| N=C(N)N/N=C\c1c(-c2cccc([N+](=O)[O-])c2)nc2sccn12 | inactive: 5.43 µM |
| CCOC(=O)CC[C@H](NC(=O)c1nc[nH]c1/N=N/N(C)C)C(=O)OCC | inactive: > 100 µM |
| CC12CCC(C(=O)OC1=O)C2(C)C (stereo not drawn) | inactive: > 100 µM |
| O=C1OC(c2ccccc2)=N/C1=C\c1ccc([N+](=O)[O-])cc1 | inactive: > 100 µM |
| CC(=O)Nc1ccc(C(=O)N2N=C(C)/C(=C/c3ccc(O)cc3)C2=O)cc1 | inactive: 89.5 µM |
| C=CCNC(=O)N(CCCC(NC(C)=O)C(=O)NCc1ccccc1)Cc1ccccc1 (stereo not drawn) | inactive: > 100 µM |
| O=C1c2ccccc2C(=O)c2cc(/N=N/c3c(O)ccc4ccccc34)ccc21 | inactive: > 100 µM |
| C=CCOC1=C(OCC=C)C(C2COC(C)(C)O2)OC1=O (stereo not drawn) | inactive: > 100 µM |
| C=CCOCn1cc(F)c(=O)[nH]c1=O | inactive: > 100 µM |
| Cc1nc2cc(/N=N/c3c(C)noc3C)ccc2[nH]1 | inactive: 23.9 µM |
| CC1CNC(NS(=O)(=O)c2cc(C(=O)Nc3ccc(F)cc3)c(Cl)cc2S)=NN1 (stereo not drawn) | inactive: 54.3 µM |
| COc1ccc2nc(-n3c(/C=C/c4ccccc4O)nc4ccccc4c3=O)sc2c1 | inactive: 52.1 µM |
| CCOC(=O)C(C)NC(=O)N(C)C12CC3CC(CC(C3)C1)C2 (stereo not drawn) | inactive: 490 µM |
| N#C/C(=C\c1ccc(Br)cc1)c1nc(-c2cc3ccccc3oc2=O)cs1 | inactive: 34.5 µM |

| Compound | GI50 |
| --- | --- |
| CCOC(=O)NC(=O)c1cn(C2CCCCC2)c(=O)n(C)c1=O | inactive: > 100 µM |
| COC(CN(C(C)=O)C1CCC2(SCCS2)c2[nH]c3ccccc3c21)OC (stereo not drawn) | inactive: > 100 µM |
| CCC1(c2ccccc2)C(=O)N=C(c2ccccc2)N1CCc1ccccc1 (stereo not drawn) | inactive: > 100 µM |
| O=c1nc2n(c3nsnc13)CCO2 | inactive: > 100 µM |
| CC(=O)c1c(-c2ccco2)c(C#N)c(=S)n(C2OC(CO)C(O)C(O)C2O)c1C (stereo not drawn) | inactive: > 100 µM |
| [N-]=[N+]=Nc1c(C=O)c(=O)n2c3c(cccc13)CCC2 | inactive: 17.6 µM |
| CC(C)(C)[Si](C)(C)OCCOCn1cc(F)c(=O)[nH]c1=O | inactive: > 100 µM |
| CCOc1cc(C2CC(c3ccc(NS(=O)(=O)c4cc([N+](=O)[O-])ccc4C)cc3)=NN2S(=O)(=O)c2cc([N+](=O)[O-])ccc2C)ccc1O (stereo not drawn) | inactive: 64.3 µM |
| O=C1C(Cl)=C(c2ccc([N+](=O)[O-])cc2)C(=O)c2c(O)cccc21 | inactive: 2.94 µM |
| CCC(/C=C/c1ccccc1)=N\Nc1ccc(Cl)c(Cl)c1 | inactive: 37.6 µM |
| N#CNCC(COCc1ccccc1)c1ccccc1 (stereo not drawn) | inactive: > 100 µM |
| C1CNCCNCCNCCN1 | inactive: > 100 µM |
| O=c1c2c3c(sc2nc(CN2CCNCC2)n1-c1ccccc1)CCCC3 | inactive: > 100 µM |
| COC(=O)c1ccc(N/C=C(/C#N)c2ccsc2)cc1 | inactive: 16.8 µM |
| CC(C)=CCc1c2c(c(O)c3c(=O)c4c(oc13)-c1ccc(O)cc1OC4C=C(C)C)C=CC(C)(C)O2 (stereo not drawn) | inactive: 14.7 µM |
| CC(=O)c1sc(Nc2nnc(-c3ccc(-c4nnc(Nc5nc(C)c(C(C)=O)s5)o4)cc3)o2)nc1C | inactive: > 100 µM |
| COC(=O)C12CC(c3ccccc31)C1C(=O)OC(=O)C12 (stereo not drawn) | inactive: > 100 µM |
| O=S(=O)(C1=CC(S(=O)(=O)c2ccccc2)CN(Cc2ccccc2)C1c1cccc2ccccc12)c1ccccc1 (stereo not drawn) | inactive: > 69 µM |
| CCOC(=O)/C=C1/Oc2ccccc2C1(C)O (stereo not drawn) | inactive: > 100 µM |
| O=C(CC(=O)N1N=C(c2ccccc2)C(/N=N/c2ccc(C(=O)O)cc2)C1=O)Nc1ccc(F)cc1 (stereo not drawn) | inactive: 21.6 µM |
| CN(C)C(=O)C1CCC(=C2C(=O)OC(C)(C)OC2=O)N1C (stereo not drawn) | inactive: > 100 µM |

| Compound | GI50 |
| --- | --- |
| COc1ccc(-c2c(C#N)c(N)nc3c2CCS(=O)(=O)c2ccccc2-3)cc1 | inactive: > 100 µM |
| O=C1c2ccccc2C(=O)N1/N=C1/SC(=N\c2ccccc2)/C(=N/c2ccccc2)N1c1ccccc1 | inactive: > 100 µM |
| CC[C@H](C)[C@H]1NC(=O)C(C(C)=O)=C1O | inactive: > 100 µM |
| CC(C)Cc1ccc(C(C)/C=C2\CCC(CN3CCOCC3)C2=O)cc1 (stereo not drawn) | inactive: 18 µM |
| O=[N+]([O-])c1ccc(NC2OCC(O)C(O)C2O)cc1 (stereo not drawn) | inactive: > 100 µM |
| CC12Nc3ccccc3C1=C(c1ccccc1)CC1C(=O)OC(=O)C12 (stereo not drawn) | inactive: > 100 µM |
| CC(C)C1NC(=O)CC(c2ccccc2)N(N=O)C1c1ccccc1 (stereo not drawn) | inactive: > 100 µM |
| O=C(O)c1ccccc1.[Ag] | inactive: 44 µM |
| O=C(O)C(CO)NC(=O)C1C(C(=O)O)C(c2ccccc2[N+](=O)[O-])C=C(c2ccco2)N1c1ccncc1 (stereo not drawn) | inactive: 11 µM |
| O=C(O)c1c[nH]c2c(=O)[nH]cnc12 | inactive: > 100 µM |
| CC1=C(Br)C(=O)c2c(O)ccc(O)c2C1=O | inactive: 1.61 µM |
| COCC(=O)[C@]1(O)Cc2c(O)c3c(c(O)c2[C@@H](OC2CC(N)C(O)C(C)O2)C1)C(=O)c1c(OC)cccc1C3=O (stereo partly drawn) | active: 0.143 µM |
| O=NN(CCCl)C(=O)N[C@H]1CCCC[C@@H]1Cl | inactive: > 100 µM |
| COc1ccccc1NC(=O)/C(Cc1nc2ccc([N+](=O)[O-])cc2nc1O)=N\NC(=O)C[N+](C)(C)C | inactive: > 100 µM |
| NC(=O)/C(=N\NC(=O)c1cc2ccccc2cc1O)C1C(=O)N(c2ccccc2)N=C1N (stereo not drawn) | inactive: 35.8 µM |
| COC(=O)CCC(=O)Nc1ccc(Cl)cc1C | inactive: > 73.5 µM |
| Nc1cc(N2CCOCC2)nc(=O)n1-c1ccccc1 | inactive: > 100 µM |
| CCN(CC)CCOC(=O)c1ccc(N)cc1.CCOC(=O)Nc1ccc(S(=O)(=O)OC)cc1.CCOC(=O)Nc1ccc(S(=O)(=O)OC)cc1.Nc1ccc(C(=O)O)c(O)c1 | inactive: > 100 µM |
| CCNC(=O)C(O)C1(O)CCC2[C@@H]3CCC4=CC(=O)C=C[C@]4(C)C3[C@@H](O)C[C@@]21C (stereo partly drawn) | inactive: > 100 µM |
| O=C(/C=C/c1ccc(O)c(O)c1)O[C@H]1CCCC[C@@H]1OC(=O)/C=C/c1ccc(O)c(O)c1 | inactive: 18.7 µM |
| O=C(CCN(CCO)CCO)Nc1ccc2c(c1)C(=O)c1ccc(NC(=O)CCN(CCO)CCO)cc1C2=O | inactive: 29.9 µM |
